Assay results as given in the supplement of paper PMC11417369.
± gives the standard deviation of the averaged measurements. This is one part of the list.

test system: PfAP2-I AP2 domain 3 (GST-tagged); test: gcPBM binding intensity (ln(normalized median fluorescence intensity)); higher = stronger DNA binding
Outline: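 GST-tagged P. falciparum DNA-binding domains produced in E. coli were incubated for 1 h on an Agilent 4 × 180k array of primer-extended double-stranded 36-bp intergenic genomic probes with negative controls. Binding intensity is the highest Masliner-normalised natural-log median intensity across replicate spots of either probe orientation, with bound protein detected by Alexa488 anti-GST antibody at 488 nm.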

| Sequence | gcPBM binding intensity (ln) |
| --- | --- |
| ATAATATAAACATACACACACACATATATATATATA [CACACA_site5591] | 9.21 ± 0.38 |
| ATAAATTGTAAAATGTGTACGCAGATATTGCGTATT [XGTACX_site332] | 8.08 ± 0.44 |
| TCTATATAATACCAATGTACATAGTTTTAAGCATAA [XGTACX_site1889] | 7.68 ± 0.47 |
| AGGATATGCAGACACACACACATATAGATTTATATA [CACACA_site7100] | 7.74 ± 0.55 |
| AAAACAAAAATATAAACACACATACATTGGTTTTCT [CACACA_site5405] | 7.84 ± 0.9 |
| TTTTGTCTTCAAATCAAATGTATATAAAAAAAATAC [CACACA_negctrl_site1717] | 7.74 ± 0.45 |
| AACTTGTGTGGATATTGTACTAACAATATGTATGAT [XGTACX_site6302] | 8.23 ± 0.42 |
| AATAGTGTATAAATTTGTACATATAATTAAAAGGAA [XGTACX_site1143] | 8.01 ± 0.59 |
| ATTCATAAAAAGAGGTGTACATTAATATAATATATA [XGTACX_site8283] | 7.87 ± 0.27 |
| TTATTCGAACAAAGGAAAAAATATATTCAAAGGAAA [TGCATGCA_negctrl_site215] | 7.46 ± 0.63 |
| AATAACTTTTTGAGATGTACATTTTTAATTCGTAGA [XGTACX_site8455] | 7.61 ± 0.44 |
| TTTTTAACTAACATATCAATTCCATACGTCGTCAAA [CACACA_negctrl_site560] | 7.61 ± 0.64 |
| ACTTTAATAATTCACTTATTTTCTTATTATATTATT [CACACA_negctrl_site556] | 7.97 ± 0.65 |
| GGATTTATTTTATATACACACATACCTATATTTATA [CACACA_site7084] | 7.79 ± 0.64 |
| ATATAAATAAAAAAAAAAAAAAAAAAAAAAAAAAAA [CACACA_negctrl_site972] | 8.27 ± 0.89 |
| TATGCTACATTATATGTACACACATATACATATATA [CACACA_site8199] | 7.86 ± 0.23 |
| ATTTATACGTAATATGCATAAATATAAATATATATA [XGTACX_negctrl_site133] | 8.04 ± 0.56 |
| TTTCTTTCTTTCTTTTTTTAAATATTTTTTAAAAAT [TGCATGCA_negctrl_site206] | 7.98 ± 0.62 |
| TTAAAATTTTAAAAATTTTAATTTTACAAAAAAAAT [TGCATGCA_negctrl_site227] | 7.38 ± 0.58 |
| AAATTAATGAAATATACACACATATATAAATATATA [CACACA_site4378] | 7.33 ± 0.52 |
| AAATTAAAGATAAAAGTGCAAAATTATAAATTTATT | 9.64 ± 0.071 |
| TATATATAACATTGTACACACAAAGAAATAATATTA [CACACA_site3035] | 7.96 ± 0.3 |

| Sequence | gcPBM binding intensity (ln) |
| --- | --- |
| AAAAGTATATATTCAGTGCATAGTCTTTAAATATAA [GTGCAC_site9522] | 9.19 ± 0.28 |
| ATAAGCATCTGGATATGTACTTATTCCTTTAAAGAT [XGTACX_site6225] | 7.62 ± 0.36 |
| AACAAGTTGCATGGTGCACACATGTATTTATATCTA [CACACA_site5414] | 10.6 ± 0.11 |
| TATTAAAAATATTATGTACACACATTTTAGATATTT [CACACA_site8549] | 7.75 ± 0.23 |
| ATAAAAAAGCAACATCATATGTTTTTATAGAGTATT [CACACA_negctrl_site745] | 7.47 ± 0.69 |
| AGTAATAGTTTGTGCACACTCAAGTATATCATAGAT [CACACA_site6082] | 11 ± 0.23 |
| TTTCGCTTTATTTATGCATGCAAATAAGTTGATATT [TGCATGCA_site724] | 8.06 ± 0.66 |
| ATTTTTGTAAATACATGTACATATATATGCATATCC [XGTACX_site6353] | 8.21 ± 0.45 |
| TACATATATACATACACACACATATAACCAATGTAG [CACACA_site2192] | 7.83 ± 0.39 |
| AAGAAAAATATTCGTGTGCACAGAAGTATATGTGTG [GTGCAC_site9814] | 10 ± 0.23 |
| TATTGTAAGAAAGGCACACAGATAAAATTATTATAT [CACACA_site2921] | 8.11 ± 0.61 |
| ATATAAGTGTATCTAACACACAAATATATAAAAATG [CACACA_site1956] | 7.8 ± 0.49 |
| ATAATTATATGGCTAGCACACAATAAATAATTATAT [CACACA_site3815] | 7.92 ± 0.42 |
| ATCATCTTTATTCAAGTGCACTGAAAATTTTTTATA [GTGCAC_site9801] | 11.1 ± 0.32 |
| ACAAGTTAAAATATTACACACATATAAATATTTATA [CACACA_site7467] | 7.72 ± 0.62 |
| TTATACATTTGTAAATAAATAGAACTGTATTTTTTT [TGCATGCA_negctrl_site397] | 7.24 ± 0.59 |
| TATATACCGATATATACACACAAATACATAAGCTTC [CACACA_site6760] | 7.58 ± 0.63 |
| CAAAATATTTTTATAACACACATATTTATAACGTGC [CACACA_site6659] | 7.73 ± 0.67 |
| TTTTGATTGTTATTCGTATATTATTTTATGATTATA [CACACA_negctrl_site1593] | 7.49 ± 0.67 |
| AATAATCATTTTCATAGTACGTATGATTAGAAAAAA [XGTACX_site2589] | 7.84 ± 0.49 |
| ATATTTCATCTAGCTACACACATATAATAAATTATT [CACACA_site4094] | 8.07 ± 0.63 |
| TGCCAATTTTTAAAAACATGCATTATATAGAATAAA [TGCATGCA_site872] | 7.97 ± 0.57 |

| Sequence | gcPBM binding intensity (ln) |
| --- | --- |
| AATGGAAAATTATTAACACACACATATAAATATATA [CACACA_site7899] | 7.62 ± 0.46 |
| TTTTCAATATATAGAGCATGCGCATCCACAAATATG [TGCATGCA_site380] | 7.93 ± 0.79 |
| TACAACAATTTTTGCACACACCAAAACATAAAATAA [CACACA_site4964] | 9.15 ± 0.22 |
| ATTAAAAGGGGGTTTACATGTGTGTGTGTAATATGG [TGCATGCA_negctrl_site293] | 8.59 ± 0.58 |
| AAATGAATTATATAATATATATAAATAAATAAATAA [CACACA_negctrl_site359] | 7.78 ± 0.71 |
| TAATAAGTACCTTTTGCATGTGGCACGCTTTTTTTT [TGCATGCA_site573] | 8.45 ± 0.92 |
| TATTATATAACAAAAAGTACTTATAAGAAATATATA [XGTACX_site5467] | 7.7 ± 0.26 |
| CTAAATATATAAAAAAGTACAAAATAAATAATAATT [XGTACX_site2442] | 8.05 ± 0.25 |
| TATTTCTGATTATTTTGTACACATTATATATAATGC [XGTACX_site6990] | 8.04 ± 0.29 |
| TATATATTATGACCACCACACACCTATACACATAAC [CACACA_site8773] | 8.34 ± 0.4 |
| AATATAAACAGACACACACACATATAGATTTATATT [CACACA_site7382] | 7.8 ± 0.52 |
| TTTTAATGAAAACACACACACACATATATATATATA [CACACA_site5295] | 9.39 ± 0.3 |
| GAAAATAGAAAAAGCACACATATATTTTGGAATGTA [CACACA_site551] | 7.83 ± 0.42 |
| GGATAGATAATAGGGGGTACAAATATACATACATAT [XGTACX_site5089] | 9.05 ± 0.16 |
| TTGTGTGTATGTATACATATATATATTGAGACGAAT [TGCATGCA_negctrl_site382] | 8.13 ± 0.82 |
| TTTCCATTATGATATAGTACATAAATATATGTAATA [XGTACX_site6992] | 7.73 ± 0.31 |
| ACATATAATAAAAAATGTACACACATAAGAAAATTT [XGTACX_site6153] | 7.96 ± 0.62 |
| AAAAAAAATATATAAACACACATATTTATATACTCA [CACACA_site4984] | 7.44 ± 0.34 |
| ACTATAAATATATAAATATATATATATATATATATA [GTGCAC_negctrl_site65] | 9.34 ± 0.8 |
| ACTCTTAAAATGTATTGTACATAATTTTTACAAGGG [XGTACX_site6611] | 7.95 ± 0.59 |
| AGGTAGTTCTGTATCACACACATATATATATATATA [CACACA_site2214] | 9.3 ± 0.71 |
| GGAGAATAGTGGAAAACACACACGTTTGAGATATGG [CACACA_site1168] | 7.92 ± 0.91 |

| Sequence | gcPBM binding intensity (ln) |
| --- | --- |
| CAAAAACGGAAGTGGTGTACCGATATTATATAAACA [XGTACX_site4962] | 7.8 ± 0.73 |
| TTTTTTTTTTTTACCTGTACATGTCAGCAAACTTTT [XGTACX_site1171] | 8.18 ± 0.64 |
| AACATTATAAGACACACACACACATATATATATATA [CACACA_site8259] | 9.16 ± 0.28 |
| TATAAAACCCTACTGTTTCTTCTTTATTGATATATT [TGCATGCA_negctrl_site285] | 7.54 ± 0.57 |
| GAAAGAATAAAATAAACATGCAAATAAAACATAAAA [TGCATGCA_site471] | 8.19 ± 0.59 |
| AAAGTTTTTATACATACACACCTATAAATTAAGTGC [CACACA_site7198] | 7.75 ± 0.57 |
| AATTGTAAATTGGGCACTTATAAAAATGAACAAATA [CACACA_negctrl_site1583] | 8.2 ± 0.4 |
| TCATAAAGAACAAAGTGTACCTATATATTACATACA [XGTACX_site7595] | 7.63 ± 0.55 |
| TACTATCTATACAATACACACAAAAAAAAAAAAATA [CACACA_site3981] | 7.7 ± 0.21 |
| TTATTATCCTATATTTCTTTTCCTTCTTCAAAATTA [CACACA_negctrl_site1314] | 7.65 ± 0.64 |
| TAAATACACTGTAGCGCACACGGCCAAAAAAAAAAA [CACACA_site1818] | 9.98 ± 0.41 |
| TAATATCATTTATATTGTACTATAACAAAATCTATA [XGTACX_site7700] | 7.53 ± 0.38 |
| TATGTCAATTTTCATACATGCGCATAATCTTTATTT [TGCATGCA_site807] | 7.91 ± 0.78 |
| ATAAATAAGATACGTACACACATATACAAAATATAC [CACACA_site3661] | 8.14 ± 0.26 |
| TAAATATATGCATATACACACAACAAAAAAATATAT [CACACA_site2341] | 8.28 ± 0.68 |
| TCTCAGTAAATTAAATGTACATAAGGGAGGAACTAT [XGTACX_site8045] | 8.14 ± 0.51 |
| TTGTGGATTTTGTGCGCACACACATGCAAAAAGAAA [CACACA_site1147] | 10.76 ± 0.071 |
| CACAGACATATATATACACACTTTTATTTAAATAAC [CACACA_site4962] | 8.12 ± 0.47 |
| AAAAAAAAAATGTGCACACGCGTACACCCAAAAAAA [CACACA_site5149] | 9.58 ± 0.27 |
| TTTTTGTATCCTTCTTCTTTTTCCAGACTACATTAT [XGTACX_negctrl_site216] | 8.05 ± 0.8 |
| TATAAAAATAATATTACACACATGTAAAATGGCTGT [CACACA_site5755] | 7.62 ± 0.72 |
